This note sets out measurements from paper PMC7819943, “Rice protein-binding microarrays: a tool to detect cis-acting elements near promoter regions in rice”.

The list shows a part of the results.

The assay deals with T1, OsWOX13 (Oryza sativa, UniProt Q5QMM3 1-267).
T1 sequence: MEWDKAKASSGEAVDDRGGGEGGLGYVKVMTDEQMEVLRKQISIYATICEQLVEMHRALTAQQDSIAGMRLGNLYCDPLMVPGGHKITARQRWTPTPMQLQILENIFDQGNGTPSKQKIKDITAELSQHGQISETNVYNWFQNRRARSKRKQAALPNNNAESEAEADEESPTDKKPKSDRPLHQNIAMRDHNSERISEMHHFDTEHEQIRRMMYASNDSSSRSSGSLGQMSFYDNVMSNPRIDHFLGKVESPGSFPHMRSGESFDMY
The experiment in a line: protein-binding microarray (RPBM); PBS, 2% BSA, 51.3 ng/ul salmon testes DNA, 50 uM zinc acetate, 200 nM TF, 25 C, 1 h; high values mean tight binding. Particulars: protein: recombinant; tags: N-terminal polyhistidine and DsRed monomer fusion (pET32a); label: CyDye5-dUTP incorporated in the synthesized complementary strand; 3' TTTTT single-stranded linker to array surface; dsDNA, one strand shown. The gist of the method:
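Transcription factors, each fused N-terminally to a polyhistidine tag and DsRed, were expressed in E. coli BL21-CodonPlus and purified on Ni–NTA. A custom Agilent array was made double-stranded by primer extension with Cy5-dUTP and blocked with 2% BSA. It was incubated with 200 nM protein in PBS, 2% BSA, salmon testes DNA and 50 µM zinc acetate at 25 °C for 1 h, then washed. The binding signal is per-feature fluorescence intensity (arbitrary units) read on an Axon 4000B scanner.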
For “TCGGACTAAATATTGACTTAGACTGCAAGTTGTAATCGTTCGGAGTCACCTAGTGCAG”, the binding signal was 4390 fluorescence intensity (a.u.).

For “ATCGTGATGGACTGATGGCTTCGTGTTCGCTGGGACCGGCCGGAGTCACCTAGTGCAG”, the binding signal is 20900 fluorescence intensity (a.u.).

In the case of “CGATTATTCGTTCCATCATGATTGGGGTAGGTTAGTTAGGCGGAGTCACCTAGTGCAG”, the binding signal was 5540 fluorescence intensity (a.u.).

As for “ATGACATATTGATGTGATAGAAAATGACGGAAGTTTGAATCGGAGTCACCTAGTGCAG”, the binding signal was 15400 fluorescence intensity (a.u.).

On to “TGCATAAGTGTTAAATTGACAGCCACTTGGTCTGTTCGTTCGGAGTCACCTAGTGCAG”, for which the binding signal is 21700 fluorescence intensity (a.u.).

On to “GGTCGGGCCGCATTGATTGCACATCTTGTCCTCATGCCTTCGGAGTCACCTAGTGCAG”, for which the binding signal is 5260 fluorescence intensity (a.u.).

Turning to “CCTTGAACATGTGAGTGACAATTAAGGGAGACATTGATCTCGGAGTCACCTAGTGCAG”, the binding signal is 4520 fluorescence intensity (a.u.).

Consider “GCACCAATCATCATATATATGATATCTCAGTACGACAGATCGGAGTCACCTAGTGCAG”, for which the binding signal was 13200 fluorescence intensity (a.u.).

Take “TCTTTCCTATTTCGGTAATTATTGTTTTGCATTTACTATTCGGAGTCACCTAGTGCAG”: the binding signal was 4040 fluorescence intensity (a.u.).

Take “ACCTTAGATGAGGAATTAATAAATAATCCAAACTGGTCCCCGGAGTCACCTAGTGCAG”: the binding signal is 9850 fluorescence intensity (a.u.).

Turning to “GGTAGATTGGTACATAATGGCATTTCAACGTGGTATTCTACGGAGTCACCTAGTGCAG”, the binding signal is 22700 fluorescence intensity (a.u.).

In the case of “GCCTATATTGATAGAGAACTACCAGCACTGGCAGGATGAGCGGAGTCACCTAGTGCAG”, the binding signal is 18900 fluorescence intensity (a.u.).

For the sequence “TCAATTGATTGATCTTCTGCTGCTGCTGCTGCATAGGTTCCGGAGTCACCTAGTGCAG”, the binding signal is 38400 fluorescence intensity (a.u.).

“GTGCTCATTTAATTGCTAAGATACACGTTTGCTAGTGCATCGGAGTCACCTAGTGCAG”: the binding signal was 6850 fluorescence intensity (a.u.).

In the case of “GCTCAAAATTCGATACCAATTAATTCTGTCATACAGGTCGCGGAGTCACCTAGTGCAG”, the binding signal was 7950 fluorescence intensity (a.u.).

In the case of “CTCTCGTAATCAGTTCAGATTTTCACTTAGATTATGGGAACGGAGTCACCTAGTGCAG”, the binding signal was 5950 fluorescence intensity (a.u.).

“GCCTCCAATTTGATTGTTCGCAACATTAAGTACCACCAAGCGGAGTCACCTAGTGCAG”: the binding signal is 18200 fluorescence intensity (a.u.).

Take “TCTTGATTGGTTGTTTTGGTTTGTTTCTTATTTATGTTTGCGGAGTCACCTAGTGCAG”: the binding signal was 54100 fluorescence intensity (a.u.).

Consider “TATAGATAGATAGATATAGTTAGTTGCAGCTGGAGACGGACGGAGTCACCTAGTGCAG”, for which the binding signal is 19300 fluorescence intensity (a.u.).

As to “CAATTAGTCCGTGATTAGCCATAAGTGCTACAGTAACCCACGGAGTCACCTAGTGCAG”, the binding signal was 8330 fluorescence intensity (a.u.).

In the case of “TTGATTTATAGATACTGTGTTGACAATGGCAGAAACAAGTCGGAGTCACCTAGTGCAG”, the binding signal was 10200 fluorescence intensity (a.u.).

Consider “TAGCATTTAATTGGAAGCATATACCATATGAGCAAATACGCGGAGTCACCTAGTGCAG”, for which the binding signal is 26800 fluorescence intensity (a.u.).

In the case of “GTTTGATTGTTTTCTAGTGTACTACACTTCCCTAGAACGTCGGAGTCACCTAGTGCAG”, the binding signal is 55000 fluorescence intensity (a.u.).

Take “TTTTGTAATTAGTTGAGTTAGATATCGGCTTTCCATTCTCCGGAGTCACCTAGTGCAG”: the binding signal is 12700 fluorescence intensity (a.u.).

Regarding “ATTAATTAGCTAGTGCGCCCCTGCCTGCTCATGAGTCATGCGGAGTCACCTAGTGCAG”, the binding signal was 31200 fluorescence intensity (a.u.).

As for “GAGTAAATTGCACACGGATGCAATCAATTGACCTGTGCTGCGGAGTCACCTAGTGCAG”, the binding signal was 20000 fluorescence intensity (a.u.).

On to “CGATTCAACAATCTTAATTCAATTATTACAAACCACGACACGGAGTCACCTAGTGCAG”, for which the binding signal is 4590 fluorescence intensity (a.u.).

With “CAAAATTAATGTTATTATACTTTGTTATACAAATGAAATGCGGAGTCACCTAGTGCAG”, the binding signal was 18700 fluorescence intensity (a.u.).

On to “ACTTGATTCCTCCTGATACTCCCCGTTCAATCTTTGTTTACGGAGTCACCTAGTGCAG”, for which the binding signal was 4910 fluorescence intensity (a.u.).

As to “TCGAGATTTGATTCAAACACGCGGTTAATCCACATTATTTCGGAGTCACCTAGTGCAG”, the binding signal was 4910 fluorescence intensity (a.u.).

With “CCAGATTGTTAGGTTCTCTCGAATTCACTCAAATAGCACACGGAGTCACCTAGTGCAG”, the binding signal is 3970 fluorescence intensity (a.u.).

For the sequence “AACTGCGCCATGACTAACACTAATTAACTAAACCCTCCATCGGAGTCACCTAGTGCAG”, the binding signal is 3980 fluorescence intensity (a.u.).

For the sequence “GTACGATTCCAATTAAATGACTATATCAGAAAACCCTCTCCGGAGTCACCTAGTGCAG”, the binding signal was 6210 fluorescence intensity (a.u.).

For the sequence “AGAGATCGAGATTGACACACAACGTGGTTCACGCGTGCGCCGGAGTCACCTAGTGCAG”, the binding signal is 23100 fluorescence intensity (a.u.).

For “AACTTATAATTTAGAGCTCTATCAAACATATCCTACATGTCGGAGTCACCTAGTGCAG”, the binding signal was 5490 fluorescence intensity (a.u.).

“CATGGACTGACGGGGATTACATTGATAAGCACTTCGCATACGGAGTCACCTAGTGCAG”: the binding signal is 8580 fluorescence intensity (a.u.).

Consider “TATCAGCTAAATTATTTATTTTCAACCAAATTTGATTTTACGGAGTCACCTAGTGCAG”, for which the binding signal was 3670 fluorescence intensity (a.u.).

As to “CCAATTAACTTTCTCAACACAAAGCAAGCACAAGCCAGCTCGGAGTCACCTAGTGCAG”, the binding signal was 3230 fluorescence intensity (a.u.).

For the sequence “GAGCTTAAATTTACTTGATGTGAATTTAACATTTTGTGTACGGAGTCACCTAGTGCAG”, the binding signal is 7270 fluorescence intensity (a.u.).

With “TTTTAAATTACCTGTAGTCTGAACTCTTATGTTGACTTTGCGGAGTCACCTAGTGCAG”, the binding signal is 10500 fluorescence intensity (a.u.).

Take “TCTAATTTATTATAACTTAAAATTACTACGATTTAATTGTCGGAGTCACCTAGTGCAG”: the binding signal was 34500 fluorescence intensity (a.u.).

In the case of “CAAGACAGTTAAATTACACCAGTTTAAATAGTTCGAGGGTCGGAGTCACCTAGTGCAG”, the binding signal was 10300 fluorescence intensity (a.u.).

In the case of “TTTCGTCCATAGACTGATAATGATTGTGAAACAGAGGAAGCGGAGTCACCTAGTGCAG”, the binding signal is 8800 fluorescence intensity (a.u.).

In the case of “GGCAACACAGGACAGATTGATGTGGCTTTGGCACCAATCACGGAGTCACCTAGTGCAG”, the binding signal is 9940 fluorescence intensity (a.u.).

In the case of “TGTTAAATTTACTGGATTTGGGCCGTAGCTTTAATGTGGGCGGAGTCACCTAGTGCAG”, the binding signal was 18100 fluorescence intensity (a.u.).

On to “TTTAATTAATTTGTTAAATTTTCTGATCGGAATGAGCGGTCGGAGTCACCTAGTGCAG”, for which the binding signal is 63700 fluorescence intensity (a.u.).

Turning to “AGAGATTGGAGGGTATTATTTGGATTAGTGATGCAAATACCGGAGTCACCTAGTGCAG”, the binding signal is 12400 fluorescence intensity (a.u.).

Turning to “TGAATGATTGCTTGGTCACATTTATTGAGCGTGAGATGTTCGGAGTCACCTAGTGCAG”, the binding signal is 39600 fluorescence intensity (a.u.).

For “TGCCATTCATTTATTGATGAAAATGAGTGAAACTTAGACACGGAGTCACCTAGTGCAG”, the binding signal was 6730 fluorescence intensity (a.u.).

As to “GTATTGACAGAACAAATGTAGAACTGGTAGGAGCTTGGCGCGGAGTCACCTAGTGCAG”, the binding signal is 17300 fluorescence intensity (a.u.).

With “TATCAATGATAATCATGATGATGGAGCATCATATCTACTACGGAGTCACCTAGTGCAG”, the binding signal was 10000 fluorescence intensity (a.u.).

With “TTATAGTGCCACTCATAATCAATTATTAATCGATTTAAAGCGGAGTCACCTAGTGCAG”, the binding signal is 3620 fluorescence intensity (a.u.).

For “ACTCACAGCTTAATTACAAATGTAAAATATGTGCATGTTTCGGAGTCACCTAGTGCAG”, the binding signal is 5380 fluorescence intensity (a.u.).

For the sequence “TTATGATTGTAAGGGTTACAGTTCTGTGACTAACCATGTACGGAGTCACCTAGTGCAG”, the binding signal was 30800 fluorescence intensity (a.u.).
